{"source": "the supplement of paper PMC3334620", "note": "Over roughly 33,000 sequences, “E-score (-0.5 to 0.5)” has its median near -0.016; the highest 2% begin near 0.31. Some of the results follow.", "data": [{"target": "Cst6 (UniProt P40535)", "test": "PBM E-score (8-mer binding enrichment) (E-score (-0.5 to 0.5)); higher = stronger / more preferred TF binding; most listed sequences are background and not binding sites", "conditions": "protein concentration: 200 nM; construct: GST-DNA-binding domain", "in_short": "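For each ungapped eight-base word taken together with its reverse complement, the Universal PBM Analysis Suite assigned an E-score. Binding data came from GST-tagged yeast transcription factors, applied at about 100-200 nM, on universal all-10-mer Agilent arrays made double-stranded by primer extension. Fluorescent anti-GST marked bound protein, and scans were normalised with masliner.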", "values": [{"sequence": "CTGTAGCA", "PBM E-score": -0.168}, {"sequence": "GCTTAGAA", "PBM E-score": -0.11}, {"sequence": "TCGTTACA", "PBM E-score": 0.0818}, {"sequence": "GGTAGGGA", "PBM E-score": -0.0499}, {"sequence": "AAGGCCGG", "PBM E-score": -0.235}, {"sequence": "CAAAGTTA", "PBM E-score": 0.2}, {"sequence": "CTGGTTAC", "PBM E-score": -0.116}, {"sequence": "ATCTTAAT", "PBM E-score": 0.104}, {"sequence": "CAAGCGAA", "PBM E-score": 0.0719}, {"sequence": "ATTTGGGG", "PBM E-score": 0.0052}, {"sequence": "TCGGCCCA", "PBM E-score": -0.153}, {"sequence": "GGCTCGGA", "PBM E-score": -0.348}, {"sequence": "GAGGCGAC", "PBM E-score": -0.0705}, {"sequence": "AGCAACTA", "PBM E-score": 0.093}, {"sequence": "CCTTAGTC", "PBM E-score": -0.25}, {"sequence": "CGCCGTCA", "PBM E-score": 0.291}, {"sequence": "ACCCTTCT", "PBM E-score": -0.147}, {"sequence": "TCCGCTAA", "PBM E-score": -0.0697}, {"sequence": "CGCTGTAC", "PBM E-score": -0.158}, {"sequence": "ACATGGGC", "PBM E-score": -0.0483}, {"sequence": "CACGGAAG", "PBM E-score": -0.147}, {"sequence": "GAGCGCGA", "PBM E-score": 0.0429}, {"sequence": "AACGTAGC", "PBM E-score": 0.0195}, {"sequence": "ATGACTTA", "PBM E-score": 0.259}, {"sequence": "GCTGCTCC", "PBM E-score": -0.288}, {"sequence": "CTGTAGAC", "PBM E-score": 0.0583}, {"sequence": "ATACTCGA", "PBM E-score": -0.0849}, {"sequence": "CGCGCGCG", "PBM E-score": 0.123}, {"sequence": "TCGCTGCA", "PBM E-score": -0.0796}, {"sequence": "CTGGATTA", "PBM E-score": 0.066}, {"sequence": "TTACACAA", "PBM E-score": 0.302}, {"sequence": "ACCAACTA", "PBM E-score": 0.111}, {"sequence": "TCCGGAGA", "PBM E-score": -0.251}, {"sequence": "CATCATCG", "PBM E-score": 0.333}, {"sequence": "CCACCTAG", "PBM E-score": -0.314}, {"sequence": "AAGACCGC", "PBM E-score": -0.18}, {"sequence": "GAGTGATC", "PBM E-score": 0.0955}, {"sequence": "ATTTACGA", "PBM E-score": 0.189}, {"sequence": "ATCTGACC", "PBM E-score": 0.0204}, {"sequence": "TAGGCAGA", "PBM E-score": 0.0434}, {"sequence": "GCTGGGCA", "PBM E-score": -0.177}, {"sequence": "AGGTCCTC", "PBM E-score": -0.201}, {"sequence": "AGCGTGAA", "PBM E-score": -0.132}, {"sequence": "AGGCCGGC", "PBM E-score": -0.216}, {"sequence": "CCCGTTAG", "PBM E-score": -0.281}, {"sequence": "ATATGAAT", "PBM E-score": 0.15}, {"sequence": "ACCCCAGC", "PBM E-score": -0.12}, {"sequence": "ATTACGAA", "PBM E-score": 0.305}, {"sequence": "CCCGACAG", "PBM E-score": -0.223}, {"sequence": "ACGCAAAC", "PBM E-score": 0.235}, {"sequence": "CGGCATAG", "PBM E-score": 0.0517}, {"sequence": "TATTTTAA", "PBM E-score": 0.259}, {"sequence": "CCCATCAG", "PBM E-score": -0.295}, {"sequence": "ATACGTGA", "PBM E-score": 0.19}, {"sequence": "CCCAGCCA", "PBM E-score": -0.181}, {"sequence": "ATGTCTAG", "PBM E-score": 0.0813}, {"sequence": "CCTCGGTA", "PBM E-score": -0.338}, {"sequence": "ACGTCTTC", "PBM E-score": 0.0859}, {"sequence": "ACCTATGC", "PBM E-score": -0.151}, {"sequence": "CGCGTTAG", "PBM E-score": 0.075}, {"sequence": "ATGAACTA", "PBM E-score": 0.0467}, {"sequence": "GATGGTGC", "PBM E-score": -0.251}, {"sequence": "AGGTGCTA", "PBM E-score": -0.17}, {"sequence": "AAGCATCA", "PBM E-score": 0.0812}, {"sequence": "ACCACTTC", "PBM E-score": -0.0806}, {"sequence": "AACGCAAT", "PBM E-score": 0.23}, {"sequence": "CGGTGTAG", "PBM E-score": -0.163}, {"sequence": "ATAGTACA", "PBM E-score": 0.0292}, {"sequence": "AGCTGCGC", "PBM E-score": -0.142}, {"sequence": "TAAATCTA", "PBM E-score": 0.0712}, {"sequence": "AGGGAAGG", "PBM E-score": -0.28}, {"sequence": "CCATTCTC", "PBM E-score": -0.101}, {"sequence": "ACTTGCGC", "PBM E-score": -0.0133}, {"sequence": "CGAGGTCA", "PBM E-score": -0.0231}, {"sequence": "GCTCCCGA", "PBM E-score": -0.173}, {"sequence": "CAAAATCA", "PBM E-score": 0.154}, {"sequence": "TCTCAAGA", "PBM E-score": -0.0292}, {"sequence": "CGTATGGC", "PBM E-score": 0.23}, {"sequence": "GTCTTGGA", "PBM E-score": -0.155}, {"sequence": "CCGCGCCC", "PBM E-score": -0.0858}, {"sequence": "AAGAGTAC", "PBM E-score": -0.161}, {"sequence": "AATAGAGC", "PBM E-score": 0.102}, {"sequence": "GGCCCGGA", "PBM E-score": -0.249}, {"sequence": "CAAGCTGG", "PBM E-score": -0.287}, {"sequence": "TAGATAGA", "PBM E-score": 0.0248}, {"sequence": "TCATTCGA", "PBM E-score": 0.235}]}]}
